Reference: the supplement of paper PMC4967469
pIC50: −log10 of the molar value. A lower IC50 marks a more sensitive line; a fit beyond the top or the lowest dose is shown as a bound at that dose. AUC, from the same fit, is the share of area under the viability curve across the 256-fold dose range; the more sensitive the line, the further below 1. For some of these results: A top dose marked as inferred comes from the curve model; the source does not state it.

How the values were obtained:
Assay in all cases: Viability of human cancer cell lines after 72 h of drug (GDSC screen)
PD-173074 = compound: CCN(CC)CCCCNc1ncc2cc(-c3cc(OC)cc(OC)c3)c(NC(=O)NC(C)(C)C)nc2n1 [PD-173074]; settings: top dose 2 µM; top dose inferred
Description: (§1)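 Human cancer cell lines in 384-well plates, medium with 10% serum, drug for 72 h over a 256-fold dose range (nine 2-fold or five 4-fold steps up to the top dose). Adherent lines were fixed and stained with the nucleic acid dye Syto60, suspension lines read with resazurin; signal relative to control wells, capped at 0 and 100%. One two-parameter sigmoid per drug and line, fitted in a mixed model over all curves with the slope shared within a line.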

SB590885 = compound: CN(C)CCOc1ccc(-c2nc(-c3ccncc3)c(-c3ccc4c(c3)CC/C4=N\O)[nH]2)cc1 [SB590885]; settings: top dose 5 µM; top dose inferred
Description: as §1

Lapatinib = compound: CS(=O)(=O)CCNCc1ccc(-c2ccc3ncnc(Nc4ccc(OCc5cccc(F)c5)c(Cl)c4)c3c2)o1 [Lapatinib]; settings: top dose 2 µM
Description: as §1

TGX221 = compound: Cc1cc(C(C)Nc2ccccc2)c2nc(N3CCOCC3)cc(=O)n2c1 [TGX221]; settings: top dose 10 µM
Description: as §1

| Cell Line | AUC (PD-173074) | pIC50 (PD-173074) | AUC (SB590885) | pIC50 (SB590885) | AUC (Lapatinib) | pIC50 (Lapatinib) | AUC (TGX221) | pIC50 (TGX221) |
| --- | --- | --- | --- | --- | --- | --- | --- | --- |
| OS-RC-2 (kidney, adherent) | 0.918 | < 5.70 | 0.974 | < 5.30 | 0.794 | 5.84 | 0.584 | 5.93 |
| OVCAR-4 (ovary, adherent) | 0.966 | < 5.70 | 0.973 | < 5.30 | 0.911 | < 5.70 | 0.95 | < 5.00 |
| P30-OHK (lymphoblastic leukaemia, suspension) | 0.945 | < 5.70 | 0.99 | < 5.30 | 0.985 | < 5.70 | 0.98 | < 5.00 |
| P31-FUJ (acute myeloid leukaemia, suspension) | 0.994 | < 5.70 | 0.996 | < 5.30 | 0.996 | < 5.70 | 0.996 | < 5.00 |
| P32-ISH (Burkitt lymphoma, suspension) | 0.995 | < 5.70 | 0.995 | < 5.30 | 0.993 | < 5.70 | 0.994 | < 5.00 |
| PF-382 (T-cell lymphoblastic leukaemia, suspension) | 0.991 | < 5.70 | 0.988 | < 5.30 | 0.95 | < 5.70 | 0.99 | < 5.00 |
| PSN1 (pancreas, adherent) | 0.991 | < 5.70 | 0.814 | 5.66 | 0.991 | < 5.70 | 0.99 | < 5.00 |
| QIMR-WIL (acute myeloid leukaemia, suspension) | 0.987 | < 5.70 | 0.987 | < 5.30 | 0.987 | < 5.70 | 0.889 | < 5.00 |
| RC-K8 (B-cell lymphoma, suspension) | 0.993 | < 5.70 | 0.993 | < 5.30 | 0.993 | < 5.70 | 0.993 | < 5.00 |
| RCC10RGB (kidney, adherent) | 0.97 | < 5.70 | 0.972 | < 5.30 | 0.897 | < 5.70 | 0.773 | 5.05 |
| REH (B-cell leukaemia, suspension) | 0.951 | < 5.70 | 0.973 | < 5.30 | 0.974 | < 5.70 | 0.985 | < 5.00 |
| RF-48 (stomach, adherent) | 0.973 | < 5.70 | 0.977 | < 5.30 | 0.983 | < 5.70 | 0.926 | < 5.00 |
| RH-1 (rhabdomyosarcoma, adherent) | 0.986 | < 5.70 | 0.991 | < 5.30 | 0.985 | < 5.70 | 0.991 | < 5.00 |
| RKO (large intestine, adherent) | 0.984 | < 5.70 | 0.921 | < 5.30 | 0.965 | < 5.70 | 0.984 | < 5.00 |
| RL (B-cell lymphoma, suspension) | 0.99 | < 5.70 | 0.99 | < 5.30 | 0.984 | < 5.70 | 0.989 | < 5.00 |
| ROS-50 (B-cell leukaemia, suspension) | 0.968 | < 5.70 | 0.971 | < 5.30 | 0.984 | < 5.70 | 0.977 | < 5.00 |
| RPMI-6666 (Hodgkin lymphoma, suspension) | 0.922 | < 5.70 | 0.845 | 5.32 | 0.955 | < 5.70 | 0.916 | < 5.00 |
| RPMI-8226 (myeloma, suspension) | 0.912 | < 5.70 | 0.973 | < 5.30 | 0.99 | < 5.70 | 0.984 | < 5.00 |
| RPMI-8402 (T-cell lymphoblastic leukaemia, suspension) | 0.969 | < 5.70 | 0.991 | < 5.30 | 0.975 | < 5.70 | 0.958 | < 5.00 |
| RPMI-8866 (chronic myeloid leukaemia, suspension) | 0.94 | < 5.70 | 0.915 | < 5.30 | 0.988 | < 5.70 | 0.988 | < 5.00 |
| RS4-11 (leukaemia, suspension) | 0.923 | < 5.70 | 0.989 | < 5.30 | 0.968 | < 5.70 | 0.958 | < 5.00 |
| RXF393 (kidney, adherent) | 0.93 | < 5.70 | 0.978 | < 5.30 | 0.962 | < 5.70 | 0.714 | 5.49 |
| Raji (Burkitt lymphoma, suspension) | 0.977 | < 5.70 | 0.976 | < 5.30 | 0.987 | < 5.70 | 0.983 | < 5.00 |
| Ramos-2G6-4C10 (Burkitt lymphoma, suspension) | 0.959 | < 5.70 | 0.945 | < 5.30 | 0.973 | < 5.70 | 0.953 | < 5.00 |
| SBC-1 (small cell lung carcinoma, suspension) | 0.989 | < 5.70 | 0.989 | < 5.30 | 0.989 | < 5.70 | 0.98 | < 5.00 |
| SCH (stomach, adherent) | 0.988 | < 5.70 | 0.984 | < 5.30 | 0.988 | < 5.70 | 0.988 | < 5.00 |
| SF126 (glioma, adherent) | 0.96 | < 5.70 | 0.986 | < 5.30 | 0.983 | < 5.70 | 0.874 | < 5.00 |
| SF268 (glioma, adherent) | 0.985 | < 5.70 | 0.985 | < 5.30 | 0.934 | < 5.70 | 0.943 | < 5.00 |
| SF539 (glioma, adherent) | 0.985 | < 5.70 | 0.99 | < 5.30 | 0.966 | < 5.70 | 0.979 | < 5.00 |
